Measured values published in PMC8027439.
These are yes or no findings as the source states them, for the method shown. Binding seen in cells or lysates may run through a third protein. Some entries that bind do so weakly or less than the wild type. For some assays here: Tags and fused reporters may be left off the sequences shown.

Protein sequences, listed by entry. Tags and fused reporters are not part of them.
UniProt P20700: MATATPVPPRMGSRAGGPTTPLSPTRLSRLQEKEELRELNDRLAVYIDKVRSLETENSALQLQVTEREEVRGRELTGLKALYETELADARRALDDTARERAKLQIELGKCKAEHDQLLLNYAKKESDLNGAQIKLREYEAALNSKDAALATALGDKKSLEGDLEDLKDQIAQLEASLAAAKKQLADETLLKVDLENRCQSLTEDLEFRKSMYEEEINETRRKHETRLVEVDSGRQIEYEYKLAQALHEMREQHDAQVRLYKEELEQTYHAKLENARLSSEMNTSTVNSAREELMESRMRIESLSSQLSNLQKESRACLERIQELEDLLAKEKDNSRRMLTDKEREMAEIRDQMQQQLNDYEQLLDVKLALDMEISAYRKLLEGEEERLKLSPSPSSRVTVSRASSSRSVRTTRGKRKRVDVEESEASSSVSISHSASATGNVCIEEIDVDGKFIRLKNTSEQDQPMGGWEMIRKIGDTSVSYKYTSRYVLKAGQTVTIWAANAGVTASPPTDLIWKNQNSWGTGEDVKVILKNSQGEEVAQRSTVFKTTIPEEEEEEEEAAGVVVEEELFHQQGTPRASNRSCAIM
UniProt Q14739: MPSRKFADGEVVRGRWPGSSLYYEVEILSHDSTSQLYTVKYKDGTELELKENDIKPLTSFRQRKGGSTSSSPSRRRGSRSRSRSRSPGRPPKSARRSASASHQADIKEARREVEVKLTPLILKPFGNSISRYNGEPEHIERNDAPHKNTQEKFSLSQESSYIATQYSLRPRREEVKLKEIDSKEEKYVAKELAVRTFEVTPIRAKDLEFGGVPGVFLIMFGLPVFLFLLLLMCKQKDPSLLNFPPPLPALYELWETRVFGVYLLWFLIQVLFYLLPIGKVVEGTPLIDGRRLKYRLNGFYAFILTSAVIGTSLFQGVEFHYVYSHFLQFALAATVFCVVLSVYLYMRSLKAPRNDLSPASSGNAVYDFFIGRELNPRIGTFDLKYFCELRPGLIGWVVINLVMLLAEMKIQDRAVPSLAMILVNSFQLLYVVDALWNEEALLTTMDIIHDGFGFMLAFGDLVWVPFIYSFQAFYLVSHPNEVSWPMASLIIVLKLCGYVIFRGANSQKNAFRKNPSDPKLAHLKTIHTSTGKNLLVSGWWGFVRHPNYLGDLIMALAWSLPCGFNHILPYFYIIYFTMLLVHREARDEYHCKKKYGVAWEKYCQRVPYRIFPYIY
UniProt Q13263: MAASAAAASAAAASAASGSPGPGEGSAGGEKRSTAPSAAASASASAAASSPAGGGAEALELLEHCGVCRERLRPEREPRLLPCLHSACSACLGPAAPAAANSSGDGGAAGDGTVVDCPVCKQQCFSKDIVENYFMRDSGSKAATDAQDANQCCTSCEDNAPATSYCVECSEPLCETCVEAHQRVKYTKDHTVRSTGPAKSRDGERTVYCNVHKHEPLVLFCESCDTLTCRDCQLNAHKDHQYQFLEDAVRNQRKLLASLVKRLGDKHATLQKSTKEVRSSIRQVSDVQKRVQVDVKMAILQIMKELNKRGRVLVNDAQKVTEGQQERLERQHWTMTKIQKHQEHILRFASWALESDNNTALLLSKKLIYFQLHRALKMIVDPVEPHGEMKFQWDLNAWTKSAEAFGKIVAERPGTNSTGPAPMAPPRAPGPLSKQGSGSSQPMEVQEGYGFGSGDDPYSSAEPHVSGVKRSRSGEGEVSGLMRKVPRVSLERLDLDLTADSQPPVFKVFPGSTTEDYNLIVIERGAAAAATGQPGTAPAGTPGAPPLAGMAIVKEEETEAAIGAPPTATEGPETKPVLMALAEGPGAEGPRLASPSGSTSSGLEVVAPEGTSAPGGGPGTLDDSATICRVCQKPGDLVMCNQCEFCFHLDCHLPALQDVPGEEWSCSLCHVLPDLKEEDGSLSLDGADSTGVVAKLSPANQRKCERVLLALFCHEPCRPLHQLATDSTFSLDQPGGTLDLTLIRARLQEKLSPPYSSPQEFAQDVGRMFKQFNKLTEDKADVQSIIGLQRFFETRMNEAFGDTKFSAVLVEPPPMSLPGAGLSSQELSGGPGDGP

T1: Flag-tagged CLOCK truncation mutant a.a. 1–379 (human) (UniProt O15516)
T1 sequence: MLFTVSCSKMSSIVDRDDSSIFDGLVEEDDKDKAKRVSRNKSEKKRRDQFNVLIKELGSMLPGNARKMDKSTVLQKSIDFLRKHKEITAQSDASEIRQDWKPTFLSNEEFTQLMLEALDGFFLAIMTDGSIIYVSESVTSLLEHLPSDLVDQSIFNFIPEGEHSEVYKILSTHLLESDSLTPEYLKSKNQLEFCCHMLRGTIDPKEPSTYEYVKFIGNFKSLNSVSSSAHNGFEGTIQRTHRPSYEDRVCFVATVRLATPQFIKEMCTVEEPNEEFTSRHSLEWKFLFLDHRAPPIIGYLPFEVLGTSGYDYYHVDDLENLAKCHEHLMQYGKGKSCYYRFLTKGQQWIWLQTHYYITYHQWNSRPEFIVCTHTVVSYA

T2: CLOCK Δ51 (lacks a.a. 514–564), transcriptionally inactive mutant (human) (UniProt O15516)
T2 sequence: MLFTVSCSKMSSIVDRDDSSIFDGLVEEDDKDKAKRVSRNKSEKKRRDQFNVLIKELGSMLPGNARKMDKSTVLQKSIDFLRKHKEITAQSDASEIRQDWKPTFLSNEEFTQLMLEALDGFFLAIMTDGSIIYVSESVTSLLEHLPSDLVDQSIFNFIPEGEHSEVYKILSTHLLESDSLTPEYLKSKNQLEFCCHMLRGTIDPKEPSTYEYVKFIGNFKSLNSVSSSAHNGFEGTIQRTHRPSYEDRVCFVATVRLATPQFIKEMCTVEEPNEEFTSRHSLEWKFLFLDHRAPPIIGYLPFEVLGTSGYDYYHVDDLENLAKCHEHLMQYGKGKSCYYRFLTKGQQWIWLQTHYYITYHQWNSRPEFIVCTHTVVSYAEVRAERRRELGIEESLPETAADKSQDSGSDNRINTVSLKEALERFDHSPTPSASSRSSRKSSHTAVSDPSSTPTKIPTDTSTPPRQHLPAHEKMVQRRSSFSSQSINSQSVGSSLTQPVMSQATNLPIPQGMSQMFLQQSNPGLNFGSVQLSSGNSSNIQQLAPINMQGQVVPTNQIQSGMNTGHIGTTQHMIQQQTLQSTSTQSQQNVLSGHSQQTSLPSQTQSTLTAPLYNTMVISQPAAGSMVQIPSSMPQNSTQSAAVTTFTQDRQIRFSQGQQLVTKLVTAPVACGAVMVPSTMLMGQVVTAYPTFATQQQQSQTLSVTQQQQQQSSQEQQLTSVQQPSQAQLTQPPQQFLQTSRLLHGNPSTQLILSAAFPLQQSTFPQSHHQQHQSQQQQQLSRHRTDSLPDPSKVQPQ

T3: Flag-tagged CLOCK truncation mutant a.a. 1–651 (human) (UniProt O15516)
T3 sequence: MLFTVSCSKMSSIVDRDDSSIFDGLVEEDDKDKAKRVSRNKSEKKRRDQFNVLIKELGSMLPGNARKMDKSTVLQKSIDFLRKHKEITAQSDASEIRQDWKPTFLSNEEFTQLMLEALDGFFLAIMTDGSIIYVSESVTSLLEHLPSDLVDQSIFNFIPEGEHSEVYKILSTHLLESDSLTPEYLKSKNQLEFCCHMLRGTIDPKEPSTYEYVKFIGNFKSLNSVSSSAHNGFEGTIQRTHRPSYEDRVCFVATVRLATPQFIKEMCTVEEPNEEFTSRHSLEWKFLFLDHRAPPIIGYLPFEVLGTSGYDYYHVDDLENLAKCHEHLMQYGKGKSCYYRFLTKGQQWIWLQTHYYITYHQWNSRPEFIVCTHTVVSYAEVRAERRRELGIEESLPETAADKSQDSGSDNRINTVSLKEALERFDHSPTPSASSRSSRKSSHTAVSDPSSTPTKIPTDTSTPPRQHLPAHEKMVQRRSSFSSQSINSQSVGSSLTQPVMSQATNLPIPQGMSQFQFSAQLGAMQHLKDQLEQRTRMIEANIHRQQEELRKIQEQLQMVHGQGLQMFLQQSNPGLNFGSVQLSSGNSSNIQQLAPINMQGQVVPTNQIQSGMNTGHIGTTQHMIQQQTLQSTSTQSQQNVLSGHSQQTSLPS

T4: Flag-tagged CLOCK truncation mutant a.a. 380–651 (human) (UniProt O15516)
T4 sequence: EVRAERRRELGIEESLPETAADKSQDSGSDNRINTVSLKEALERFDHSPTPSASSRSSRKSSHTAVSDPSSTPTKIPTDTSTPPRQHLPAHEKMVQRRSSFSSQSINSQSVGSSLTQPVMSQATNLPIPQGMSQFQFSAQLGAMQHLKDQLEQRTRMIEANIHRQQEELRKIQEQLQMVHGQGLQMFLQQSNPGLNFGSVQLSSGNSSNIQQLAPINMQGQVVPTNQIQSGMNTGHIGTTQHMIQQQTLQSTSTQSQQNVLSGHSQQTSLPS

T5: Flag-tagged CLOCK (full-length, wild type) (human) (UniProt O15516)
T5 sequence: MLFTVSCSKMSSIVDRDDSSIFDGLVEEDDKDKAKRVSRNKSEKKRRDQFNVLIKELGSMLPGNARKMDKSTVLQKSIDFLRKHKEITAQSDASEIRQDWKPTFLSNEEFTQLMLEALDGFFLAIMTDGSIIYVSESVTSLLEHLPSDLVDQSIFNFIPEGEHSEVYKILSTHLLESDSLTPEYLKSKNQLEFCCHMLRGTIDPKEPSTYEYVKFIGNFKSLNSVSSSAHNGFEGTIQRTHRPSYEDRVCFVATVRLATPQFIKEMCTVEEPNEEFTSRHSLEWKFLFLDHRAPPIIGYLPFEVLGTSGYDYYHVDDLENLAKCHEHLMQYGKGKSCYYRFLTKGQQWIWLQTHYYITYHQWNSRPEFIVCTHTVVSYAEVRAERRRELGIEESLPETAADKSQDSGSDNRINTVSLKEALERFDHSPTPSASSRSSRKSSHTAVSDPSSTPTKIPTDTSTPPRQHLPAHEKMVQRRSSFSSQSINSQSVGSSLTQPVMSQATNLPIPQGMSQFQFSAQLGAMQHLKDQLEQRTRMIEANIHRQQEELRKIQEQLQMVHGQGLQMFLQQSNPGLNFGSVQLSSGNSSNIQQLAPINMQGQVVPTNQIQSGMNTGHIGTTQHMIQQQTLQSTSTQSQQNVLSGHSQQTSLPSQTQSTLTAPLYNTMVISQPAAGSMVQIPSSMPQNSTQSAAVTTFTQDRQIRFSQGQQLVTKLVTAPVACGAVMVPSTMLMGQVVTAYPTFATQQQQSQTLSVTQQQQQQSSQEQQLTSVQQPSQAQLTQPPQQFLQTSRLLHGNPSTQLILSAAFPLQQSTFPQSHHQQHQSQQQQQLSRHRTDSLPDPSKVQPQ

T6: Flag-tagged CLOCK truncation mutant a.a. 380–846 (human) (UniProt O15516)
T6 sequence: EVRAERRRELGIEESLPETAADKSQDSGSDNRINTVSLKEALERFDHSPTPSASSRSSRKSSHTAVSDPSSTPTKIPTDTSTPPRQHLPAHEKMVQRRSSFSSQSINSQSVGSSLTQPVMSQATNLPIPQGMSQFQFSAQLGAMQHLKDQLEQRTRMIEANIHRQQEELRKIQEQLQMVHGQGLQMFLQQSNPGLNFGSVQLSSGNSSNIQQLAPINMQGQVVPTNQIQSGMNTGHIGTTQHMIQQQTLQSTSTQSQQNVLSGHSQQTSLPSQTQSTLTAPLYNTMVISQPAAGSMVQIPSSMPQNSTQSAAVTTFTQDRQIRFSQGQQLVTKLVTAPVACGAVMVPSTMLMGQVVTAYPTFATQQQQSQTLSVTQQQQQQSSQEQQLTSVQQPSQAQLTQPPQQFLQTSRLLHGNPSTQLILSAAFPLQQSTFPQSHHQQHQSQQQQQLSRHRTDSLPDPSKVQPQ

T7: Flag-tagged CLOCK truncation mutant a.a. 652–846 (human) (UniProt O15516)
T7 sequence: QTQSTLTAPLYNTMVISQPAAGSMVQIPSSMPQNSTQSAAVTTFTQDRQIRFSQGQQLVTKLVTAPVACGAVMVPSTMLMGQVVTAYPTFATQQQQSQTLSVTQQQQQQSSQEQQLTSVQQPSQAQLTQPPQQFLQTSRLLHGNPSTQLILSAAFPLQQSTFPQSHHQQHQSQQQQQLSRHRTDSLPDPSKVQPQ

B1: PER3, core circadian clock factor (protein, UniProt P56645 1-1201)
chain: MPRGEAPGPGRRGAKDEALGEESGERWSPEFHLQRKLADSSHSEQQDRNRVSEELIMVVQEMKKYFPSERRNKPSTLDALNYALRCVHSVQANSEFFQILSQNGAPQADVSMYSLEELATIASEHTSKNTDTFVAVFSFLSGRLVHISEQAALILNRKKDVLASSHFVDLLAPQDMRVFYAHTARAQLPFWNNWTQRAARYECAPVKPFFCRIRGGEDRKQEKCHSPFRIIPYLIHVHHPAQPELESEPCCLTVVEKIHSGYEAPRIPVNKRIFTTTHTPGCVFLEVDEKAVPLLGYLPQDLIGTSILSYLHPEDRSLMVAIHQKVLKYAGHPPFEHSPIRFCTQNGDYIILDSSWSSFVNPWSRKISFIIGRHKVRTSPLNEDVFATKIKKMNDNDKDITELQEQIYKLLLQPVHVSVSSGYGSLGSSGSQEQLVSIASSSEASGHRVEETKAEQMTLQQVYASVNKIKNLGQQLYIESMTKSSFKPVTGTRTEPNGGGECKTFTSFHQTLKNNSVYTEPCEDLRNDEHSPSYQQINCIDSVIRYLKSYNIPALKRKCISCTNTTSSSSEEDKQNHKADDVQALQAGLQIPAIPKSEMPTNGRSIDTGGGAPQILSTAMLSLGSGISQCGYSSTIVHVPPPETARDATLFCEPWTLNMQPAPLTSEEFKHVGLTAAVLSAHTQKEEQNYVDKFREKILSSPYSSYLQQESRSKAKYSYFQGDSTSKQTRSAGCRKGKHKRKKLPEPPDSSSSNTGSGPRRGAHQNAQPCCPSAASSPHTSSPTFPPAAMVPSQAPYLVPAFPLPAATSPGREYAAPGTAPEGLHGLPLSEGLQPYPAFPFPYLDTFMTVFLPDPPVCPLLSPSFLPCPFLGATASSAISPSMSSAMSPTLDPPPSVTSQRREEEKWEAQSEGHPFITSRSSSPLQLNLLQEEMPRPSESPDQMRRNTCPQTEYCVTGNNGSESSPATTGALSTGSPPRENPSHPTASALSTGSPPMKNPSHPTASALSTGSPPMKNPSHPTASTLSMGLPPSRTPSHPTATVLSTGSPPSESPSRTGSAASGSSDSSIYLTSSVYSSKISQNGQQSQDVQKKETFPNVAEEPIWRMIRQTPERILMTYQVPERVKEVVLKEDLEKLESMRQQQPQFSHGQKEELAKVYNWIQSQTVTQEIDIQACVTCENEDSADGAATSCGQVLVEDSC

What was measured:
Assay in all cases: co-IP; HEK293T cells transfected with Flag-tagged CLOCK constructs, CHAPS lysis buffer (120 mM NaCl, 0.3% CHAPS, 1 mM EDTA, 40 mM HEPES pH 7.5), anti-Flag antibody-coupled beads overnight at 4 °C, six washes, western blot of the partners
[1] = biological target: T1, Flag-tagged CLOCK truncation mutant a.a. 1–379 (human)
[2] = biological target: T2, CLOCK Δ51 (lacks a.a. 514–564), transcriptionally inactive mutant (human)
[3] = biological target: T3, Flag-tagged CLOCK truncation mutant a.a. 1–651 (human)
[4] = biological target: T4, Flag-tagged CLOCK truncation mutant a.a. 380–651 (human)
[5] = biological target: T5, Flag-tagged CLOCK (full-length, wild type) (human)
[6] = biological target: T6, Flag-tagged CLOCK truncation mutant a.a. 380–846 (human)
[7] = biological target: T7, Flag-tagged CLOCK truncation mutant a.a. 652–846 (human)

Row | Molecule | binding [1] | binding [2] | binding [3] | binding [4] | binding [5] | binding [6] | binding [7]
1 | Lamin B1, nuclear lamina protein (from UniProt P20700 1-586) | binds | binds | binds |  |  |  | 
2 | LBR, nuclear lamina protein (from UniProt Q14739 1-615) |  |  | binds | binds |  |  | 
3 | KAP1, heterochromatin-associated protein (from UniProt Q13263 1-835) | binds | binds | binds |  |  |  | 
4 | B1 | no binding |  | no binding | no binding | binds | no binding | no binding
